About 7,000 (2%) of roughly 350,000 compounds were called active. This list was built around the results that the source calls inconclusive (neither active nor inactive); the mix of calls is not that of the screen. Rule as the data show it: active = activation above about 40%; inconclusive = no clear call, values can overlap the other calls; inactive = below that.
Test: raisers of Bmi1 knock-in reporter signal – mouse ES cells, Bmi1 luciferase knock-in, single point, esBAF inhibitor project, primary screen (AID 602393);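 also: 0% = median of the plate's neutral control wells and 100% = double that signal; a rise in the Bmi1 reporter signal indicates esBAF inhibition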
Conditions: 24 h, at 12.5 µM, stronger effect = higher value, 100% = twice the neutral-well signal

Row | Structure (SMILES) | reporter increase
1 | C/C=C/c1ccc2c(c1)O[C@H](CN(C)C(=O)c1ccc3c(c1)OCO3)[C@@H](C)CN([C@@H](C)CO)S2(=O)=O | inactive: -5.12%
2 | Cn1nc(NC(=O)C(F)(F)F)c2ncc(-c3ccc(Cl)cc3)nc21 | inconclusive: 53.2%
3 | O=C(NCC1CCCO1)c1ccc(COc2ccccc2)cc1 (stereo unspecified) | active: 48.7%
4 | Cc1noc(C)c1S(=O)(=O)N(C)C[C@H]1OCCCC[C@@H](C)Oc2ccc(NC(=O)Nc3ccccc3)cc2C(=O)N([C@H](C)CO)C[C@@H]1C | inactive: -6.8%
5 | COc1ccc2nc(NC(=O)c3cccnc3SC)sc2c1 | inconclusive: 36.9%
6 | CCC(C)SCc1nc2ccccc2[nH]1 (stereo unspecified) | inconclusive: 41.9%
7 | Cn1cnc2c(SCc3ccccc3)ncnc21 | inconclusive: 40.2%
8 | CCOC(=O)C1=CN(Cc2cccc(-c3ccc(Cl)nc3)c2)S(=O)(=O)N(C)C1C (stereo unspecified) | inconclusive: 40.2%
9 | CCOC(=O)Oc1ccc2c(=O)c(Oc3cccc(C)c3)coc2c1 | inconclusive: 40.1%
10 | COc1ccc(-c2csc(C(C)(O)c3ccccc3)n2)cc1OC (stereo unspecified) | inactive: 10.5%
11 | COc1cc(Cl)ccc1OCc1cc(C(=O)N(C)C2CCOC2)no1 (stereo unspecified) | active: 55.5%
12 | Cc1c(/C(O)=C2/C(=O)C(=O)N(Cc3cccnc3)C2c2cccs2)cnn1-c1ccccc1 (stereo unspecified) | active: 46.1%
13 | Cc1cc(Br)ccc1NC(=O)CN(C)C(=O)c1ccc2ccccc2n1 | inconclusive: 41.3%
14 | CC1CC(C)(C)CC2(C1)NC(=O)N(CC(=O)OCC(=O)Nc1cc(S(=O)(=O)N3CCCCC3)ccc1Cl)C2=O (stereo unspecified) | inconclusive: 42.8%
15 | Nc1c(-c2ccccc2)cnn1-c1cccc([N+](=O)[O-])c1 | inconclusive: 42.3%
16 | COc1ccc(NC(=O)N(C)C[C@H]2Oc3ccc(NC(=O)Nc4ccccc4)cc3CC(=O)N([C@@H](C)CO)C[C@H]2C)cc1 | inactive: -0.501%
17 | O=C1c2cccc3cccc(c23)C(=O)N1OS(=O)(=O)c1ccccc1 | inconclusive: 44.1%
18 | Cc1cc(=O)oc2cc(NC(=O)C3CCCC3)ccc12 | inconclusive: 53.7%
19 | CC1Cc2cc(-c3csc(N)n3)ccc2O1 (stereo unspecified) | inconclusive: 44.2%

Row | Structure (SMILES) | reporter increase
20 | COc1ccc(C(=O)N/C(N)=N/c2nc3ccccc3o2)cc1 | inconclusive: 28.5%
21 | N#Cc1nc(COc2cccc(Cl)c2)oc1NCc1ccco1 | active: 50.8%
22 | COc1ccc(OC)c(C2CC(=O)Nc3cc(OC)c(OC)c(OC)c32)c1 (stereo unspecified) | inactive: -0.142%
23 | Nc1cc(-c2nc3ncccc3o2)ccc1Cl | inconclusive: 44.7%
24 | COC(=O)/C(C#N)=C1/C=Cc2ccccc2N1 | inactive: 26.7%
25 | O=C(CC(O)CCc1ccccc1)c1ccc(O)cc1 (stereo unspecified) | inconclusive: 40.4%
26 | Cc1ccc(F)c(NC(=O)CCc2ccccc2)c1 | inconclusive: 44.3%
27 | COC(=O)C[C@H]1CC[C@@H]2[C@@H](COc3ccc(NC(=O)c4cccc(Cl)c4)cc3C(=O)N2C)O1 | inactive: -3.61%
28 | C=CCn1c(=S)[nH]c2nc3c(cc2c1=O)CCCC3 | inconclusive: 48.4%
29 | O=C(Nc1nccs1)c1c(O)c2c([nH]c1=O)CCCC2 | inconclusive: 81.1%
30 | CCOC(=O)c1cnn(-c2ccc(C(C)C)cc2)c1NC(=O)C1CCC1 | inconclusive: 41.8%
31 | CC(C)(C)c1ccc(C(=O)N2CCC(=O)N(C(CO)Cc3ccccc3)CC2)cc1 (stereo unspecified) | inactive: 14.7%
32 | Cc1oc2c(c1C(=O)c1ccccc1)C(=O)C(=O)c1ccccc1-2 | inconclusive: 45.4%
33 | O=C(N[C@@H]1C=C[C@H](CC(=O)N2CCOCC2)O[C@H]1CO)c1ccc2c(c1)OCO2 | inactive: 0.78%
34 | COc1ccc2nc(N3C(=O)C(O)=C(C(=O)c4ccco4)C3c3ccco3)sc2c1 (stereo unspecified) | inactive: -10.8%
35 | CN(C(=O)c1ccc2c(Cl)c3c(nc2c1)CCC3)c1ccccc1 | active: 87.9%
36 | CCOc1ccc(NC(=S)NC(=O)c2ccco2)cc1 | inconclusive: 55.2%
37 | CC(C)OCCOc1ccc2oc(-c3ccco3)cc(=O)c2c1 | inconclusive: 23.3%
38 | Clc1ccc(Cn2nnc(-c3ccc(CN4CCOCC4)cc3)n2)cc1 | active: 51.6%

Row | Structure (SMILES) | reporter increase
39 | CCn1c(COc2ccccc2OC)nc2ccccc21 | inconclusive: 43.1%
40 | CCCCCc1ccc(-c2nnc(N)s2)cc1 | inconclusive: 41.6%
41 | O=C(Nc1ccc(Cl)c(Cl)c1)c1ccc(Cl)c(Cl)c1 | inconclusive: 67.3%
42 | Cc1ccc(NC(=S)Nc2cccc3cnccc23)c(C)c1 | inactive: 39%
43 | c1cncc(-c2noc(-c3ccco3)n2)c1 | inconclusive: 40.7%
44 | CC(C)(C)SCCNC(=O)CSc1ccccc1 | inconclusive: 42.6%
45 | CN1CCN(c2ccc(NC(=O)CSc3ccccc3)cc2F)CC1 | inactive: -2.97%
46 | CC(=O)Nc1nnc(SCc2ccc(F)cc2)s1 | active: 46.4%
47 | Cc1ccc(O)c(N=Cc2ccc(C)s2)c1 | active: 58.6%
48 | CCNC(=S)Nc1cc2oc3ccccc3c2cc1OC | active: 45.3%
49 | COc1ccc(C)cc1NC(=O)CN(Cc1nnc(-c2ccc(Cl)cc2)o1)C1CCCC1 | inconclusive: 41.3%
50 | C[C@@H]1CCCCO[C@@H](CN(C)C(=O)Nc2ccc(C(F)(F)F)cc2)[C@H](C)CN([C@H](C)CO)C(=O)c2cc(NC(=O)Nc3ccccc3)ccc2O1 | inactive: 5.64%
51 | O=c1/c(=C\c2ccc3c(c2)OCO3)sc2n1CCCN=2 | inconclusive: 67%
52 | O=C(Nc1cc(F)ccc1F)N1CCCCN2[C@@H](CO)[C@@H](c3ccc(C4=CCCCC4)cc3)[C@@H]2C1 | inactive: -3.44%
53 | C[C@H]1CCCCO[C@H](CN(C)C(=O)C2CCCCC2)[C@@H](C)CN([C@@H](C)CO)C(=O)c2cc(N(C)C)ccc2O1 | inactive: -1.19%
54 | C[C@@H]1CN([C@H](C)CO)C(=O)c2cc(/C=C/c3ccccc3)cnc2O[C@@H]1CN(C)C(=O)c1ccc2c(c1)OCO2 | inactive: 11.7%
55 | COc1ccc(-c2ncc3ccccn23)cc1OC | inactive: 15%
56 | O=C(CSc1ccccc1F)Nc1ccc(N2CCOCC2)cc1 | inconclusive: 41.1%

— PubChem BioAssay AID602393 (Broad Institute, 2012)
